Data as given in PubChem BioAssay AID1159614 (National Center for Advancing Translational Sciences (NCATS), 2016).
The campaign covered roughly 45,000 compounds. About 65 (0.1%) were called active. Calls come from the whole dose curve; as a rule, active = well fitted activation curve with a large enough effect; inconclusive = small, poorly fitted or top-dose-only effect; inactive = no such curve, though single readings can be large or run the other way. The list shows a part of the results.

biological target: Galactocerebrosidase (Homo sapiens) (UniProt P54803); assay: A Novel Cell-Based Assay to Identify Small Molecules for B -Galactocerebrosidase; conditions: 145M-Twi-hGALC-G270D cells (Twitcher mouse brain line with human GALC G270D), HMU-beta-Gal fluorescence, 48 h; series mostly up to 57.5 µM; activation: at the top concentration; note: 0% is about no effect; nearly all actives have a fitted effect of over 65% in size
Sequence of UniProt P54803 (P54803 whole entry, looked up): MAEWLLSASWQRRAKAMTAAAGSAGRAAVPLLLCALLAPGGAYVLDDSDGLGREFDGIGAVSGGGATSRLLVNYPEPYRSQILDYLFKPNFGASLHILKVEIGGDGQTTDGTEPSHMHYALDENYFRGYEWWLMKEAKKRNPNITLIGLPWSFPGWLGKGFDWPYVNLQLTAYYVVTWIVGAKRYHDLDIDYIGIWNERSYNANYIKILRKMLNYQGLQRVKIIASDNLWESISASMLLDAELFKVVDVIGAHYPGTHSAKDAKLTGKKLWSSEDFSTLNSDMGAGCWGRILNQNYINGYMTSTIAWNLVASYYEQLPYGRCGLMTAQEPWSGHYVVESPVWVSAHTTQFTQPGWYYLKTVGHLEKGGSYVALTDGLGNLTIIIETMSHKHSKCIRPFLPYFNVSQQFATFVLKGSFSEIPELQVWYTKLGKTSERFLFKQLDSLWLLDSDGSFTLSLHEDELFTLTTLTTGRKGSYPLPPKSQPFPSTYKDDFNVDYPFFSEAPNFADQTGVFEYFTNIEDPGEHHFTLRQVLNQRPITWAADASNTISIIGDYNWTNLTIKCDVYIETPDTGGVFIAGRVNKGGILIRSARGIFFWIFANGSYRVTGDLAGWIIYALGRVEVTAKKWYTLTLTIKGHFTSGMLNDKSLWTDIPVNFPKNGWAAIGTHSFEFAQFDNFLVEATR
How it was run: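 Fluorogenic HMU-b-Gal hydrolysis (0.1 mM final, pH 5.2 citrate-phosphate with 1 mg/mL sodium taurocholate; carbonate stop buffer) measures mutant GALC activity after compound treatment of live 145M-Twi Twitcher brain cells stably carrying human GALC-G270D, with wild-type GALC line alongside; activation sought.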

activation, inactive:
CCOC(=O)c1ccc(NC(=O)Cn2cc(C(=O)c3cccs3)c3ccccc32)cc1 -15.7%, O=S(=O)(c1ccccc1)N1CCC(c2ccncc2)CC1 2.45%, Cc1nn(CC(=O)NCCc2ccccc2Cl)c(=O)c2nn(-c3ccccc3)c(C)c12 -13.2%, COc1ccc(CNCc2c(C(=O)O)c(C)n(Cc3ccc(Cl)cc3)c2C)c(OC)c1 -12.5%, CC(=O)c1cc(-c2ccc(F)cc2)n(CCC(=O)Nc2nc3c(C)cccc3s2)c1C -11.2%, Cc1ccc2c(c1)c1c(c(=O)n(-c3ccccc3C)c(=O)n1CC(=O)NCCC1=CCCCC1)n2C -4.73%, c1ccc2c(CC3=NCCN3)cccc2c1 -15.3%, CCC(C)NC(=O)c1sc2nc(C)c(C(=O)Nc3ccc(C)cc3C)c(-c3ccc(Cl)cc3)c2c1N (configuration not stated) -7.68%, O=C1COc2cc(S(=O)(=O)CCC(=O)N3CCN(c4cccc(Cl)c4)CC3)c(Cl)cc2N1 -5.7%, CCOc1ccc(CNC(=O)Cn2nc(C)c3nn(-c4ccc(Cl)cc4)c(C)c3c2=O)cc1OC -6.85%, COC(=O)c1cnn(-c2ccc(C(=O)Nc3ccc(C(C)=O)cc3)cc2)c1N -8.97%, O=C(CN1CCSc2ccccc21)N1CCN(c2cccc(Cl)c2)CC1 -31.1%, Cc1ccc(-n2ncc3c(NC4CCCCC4)ncnc32)cc1 -5.78%, Cc1ccc(Cc2nc3ccccc3nc2SCC(=O)Nc2cccc(C(F)(F)F)c2)cc1 -14.6%, CC(C)(C)c1ccc(S(=O)(=O)NCc2nc3cccnc3n2Cc2ccccc2Cl)cc1 -2.74%, O=C(CSc1nc(-c2ccccc2)[nH]c1-c1ccccc1)Nc1ccc2c(c1)OCCO2 -5.41%, Cc1nc(N2CCCC2)c2c(C(=O)N3CCN(c4cccc(C)c4C)CC3)c(C)oc2n1 -11%, CCC(=O)Nc1ccc2nc(SCc3ccc(C)cc3)sc2c1 -16%, CC(C)c1ccccc1NC(=O)CN1C(=O)c2cccc3cccc1c23 -13.5%, CC(C)c1cc(-c2nc(-c3ccccc3)no2)n[nH]1 -19.7%, COc1ccc(S(=O)(=O)N2CCN(Cc3ccc4c(c3)OCO4)CC2)cc1OC -1.12%, CN(CC(=O)Nc1ccccc1Cl)S(=O)(=O)c1ccc(C(=O)N2CCOCC2)s1 -19.1%, CCCSCCCNC(=O)c1ccc2c(c1)nc1n2CCCCC1 -7.29%, Cc1ccc(Nc2cc(C)c(C#N)c3nc4ccccc4n23)cc1Cl -11.1%, O=C(Cc1ccccc1)N(Cc1cccnc1)c1nc2ccc(F)cc2s1 -11.1%, O=C(CSc1ccccc1)NCc1ccc2c(c1)CCN2C(=O)c1ccc(F)cc1 -17.8%, COCCNC(=O)c1nn(-c2ccc(Cl)cc2)nc1CO -11.7%, Cn1cnc(S(=O)(=O)N2CCC(C(=O)NCc3ccc(Cl)cc3)CC2)c1 -7.1%, COc1ccc(CNC(=O)c2cc3c(=O)n(C)c4ccccc4c3n2C)cc1 -4.3%, O=C(COc1ccccc1)Nc1nnc(S(=O)(=O)N2CCCCCC2)s1 -8.95%, Cc1ccccc1-c1nnc(C2CCN(S(=O)(=O)c3ccc(Cl)cc3)CC2)o1 -7.87%, CCc1ccc(CNC(=O)CCCN2C(=O)c3cccnc3Oc3ccc(Cl)cc32)cc1 -5%, CCOc1cc(C2CC(=O)Nc3nc(SCc4ccccc4)[nH]c(=O)c32)ccc1O (configuration not stated) -6.75%, CCOC(=O)c1ccc(N2C(=O)c3[nH]nc(-c4ccc(OCC)cc4)c3C2c2ccc(OC)cc2OC)cc1 (configuration not stated) 5.84%, CCc1ccc2oc(-c3ccc(NC(=O)c4cc(OC)c(OC)c(OC)c4)cc3)nc2c1 -28.4%, O=C(Nc1cccc2cccnc12)c1ccc(F)cc1 -17.6%, CCCN(CCC)CCCNC(=O)Cn1cnc2onc(-c3ccc(F)cc3)c2c1=O -27.8%, O=C(Cn1cnc2c(nc3n2CCCCC3)c1=O)Nc1ccc(F)cc1 -25.5%, O=C(CCCn1c(=O)[nH]c2ccccc2c1=O)NCc1ccccc1Cl 0.935%, CCc1nn(CC(=O)NCCCOC)c(=O)c2cc3occc3n12 -5.42%, COc1cc(-c2cc(OC)c3c(C)oc(C)c3c(=O)c2)ccc1OC(=O)c1ccccc1C -0.896%, COC(=O)C(C)Sc1nnc2cc(C)c3cc(C)cc(C)c3n12 (configuration not stated) -8.42%, COc1ccccc1NC(=O)Cn1c(=O)n(Cc2ccco2)c(=O)c2oc3ccccc3c21 -10.4%, Cc1ccc2c(=O)cc(C(=O)Nc3c(C)n(C)n(-c4ccccc4)c3=O)oc2c1C -19.7%, CCC(=O)NC1CC(=O)N(c2ccc3c(c2)OCCO3)C1 (configuration not stated) -8.11%, O=C(CN1C(=O)C(c2ccc(F)cc2)=NC12CCCCCC2)Nc1ccc(F)c(Cl)c1 6.47%, Cc1cc(C)c2c(-n3cccc3)c(C(=O)NCCc3ccc(Cl)cc3)sc2n1 -1.96%, CN(C(=O)c1nc(-c2cccc(F)c2)n2c1CCCCC2)c1ccccc1F -4.73%, COc1ccc(S(=O)(=O)N2c3ccc(Cl)cc3[C@@](O)(c3ccccc3Cl)[C@H]2C(=O)N2CCC[C@@H]2C(N)=O)cc1OC -3.18%, COc1cc(C2c3c(-c4ccccc4O)n[nH]c3C(=O)N2Cc2ccncc2)ccc1O (configuration not stated) -8.46%, Cc1nc2ccc(S(=O)(=O)CCC(=O)Nc3ccc(F)cc3C)cc2s1 -10.2%, COc1cc(Cl)c(NC(=O)C2CCN(S(=O)(=O)c3c(C)noc3/C=C/c3ccccc3F)CC2)c(OC)c1 2.63%, CC(C)c1ccc(NC(=O)CCCc2nc(-c3ccc(Cl)cc3)no2)cc1 -13.6%, CCc1ccc(NC(=O)CSc2ccc3nnc(CCNS(=O)(=O)c4ccc(OC)cc4)n3n2)cc1 -16.8%, Cc1cc(OCCCSc2nc(-c3ccc(C(C)(C)C)cc3)nc3cc(=O)[nH]n23)ccc1Cl -4.92%, Cc1ccccc1NC(=O)c1ccccc1NC(=O)c1ccccc1Cl -12%, CCc1ccc(NC(=O)C2CCN(c3cc(C)nc4c(-c5ccc(Cl)cc5)c(C)nn34)CC2)cc1 -7.15%, CCOC(=O)c1cc(-c2ccc(C)cc2)nn1Cc1ccccc1 -22.8%, COc1ccc(NS(=O)(=O)c2ccc(NC(=O)N3CCCC3)cc2)cc1 -12.9%, Cc1ccc(-c2cn3c(n2)sc2cc(C(=O)NCCCc4ccccc4)ccc23)cc1 -5.36%, Cc1ccc(C2=Nc3ccccc3NC(c3ccncc3)=N2)cc1 -19.7%, CCOc1ccc(-c2nc3c(C#N)c[nH]n3c2NC2CCCC2)cc1 18.7%, CNS(=O)(=O)c1cn(CC(=O)Nc2ccc(C)cc2C)cc1S(=O)(=O)NC -11.3%, COc1ccc(Nc2cc(C)nc(-n3nc(C)cc3C)n2)cc1Cl -22.9%, COc1ccc(CCNC(=O)CCc2c(C)nc3c(c(C)nn3-c3ccc(C)cc3)c2C)c(OC)c1 -18.1%, CCc1ccccc1NC(=O)C1CCCN(S(=O)(=O)c2cccc3nsnc23)C1 (configuration not stated) -4.59%, Cc1ccccc1-c1nc(CS(=O)(=O)CC(=O)NC(C)c2ccccc2)c(C)o1 (configuration not stated) -2.22%, CCN(CCCNC(=O)c1cc2c(=O)n(CC)c3ccccc3c2s1)c1cccc(C)c1 6.41%, COc1ccc2c(c1)c(=O)c(S(=O)(=O)c1ccc(C)c(C)c1)cn2CC(=O)Nc1ccccc1 -7.16%, CCc1ccc(N2CCn3c2nc2c3c(=O)n(Cc3ccc(F)cc3)c(=O)n2C)cc1 3.59%, Cc1ccc(-n2c3c(c(=O)[nH]c2=O)C(NC(=O)c2ccccc2F)(C(F)(F)F)C(=O)N3)cc1C (configuration not stated) -13.4%, Cc1ccc(CNc2ccc(-c3nc(-c4ccco4)no3)cc2[N+](=O)[O-])cc1 -11.6%, CCN(CC)CC(=O)Nc1c(C)cccc1C 0.144%, Cc1ccc(S(=O)(=O)c2nc(-c3ccccc3)oc2N2CCN(c3ccccc3)CC2)cc1 -12.4%, COc1ccc(C(=O)Nc2ccc(-n3nncc3-c3ccc(OC)c(OC)c3)cc2)cc1 -8.72%, Cc1ccc(-c2cc(C(=O)O)n(Cc3ccccc3)n2)cc1 -13.4%, COc1ccc(Cl)cc1NC(=O)CN(c1cc(C)cc(C)c1)S(=O)(=O)c1c(C)n[nH]c1C -10.9%, CCc1ccc(NC(=O)c2cc3c(=O)n(Cc4cccs4)ccc3nc2C)cc1 -14.7%, O=C(Nc1cc(F)ccc1F)C1COc2ccccc2C1 (configuration not stated) -26.7%, COc1cc(-c2noc(C3CC(=O)N(c4ccc5c(c4)OCCO5)C3)n2)cc(OC)c1OC (configuration not stated) -15.6%, CCCOc1ccc(-c2nc3ccccc3c(=O)o2)cc1 -3.15%, CC(C)(C)c1ccc(-c2nc3cc(NC(=O)c4cc5ccccc5o4)ccc3o2)cc1 5.8%, CCc1cccc(N(C)C(N)=Nc2cccc3ccccc23)c1 4.05%, O=c1cc(-c2ccccc2)nc(SCc2nc(-c3ccc(C(F)(F)F)cc3)no2)[nH]1 -2.74%, COc1ccc(CNC(=O)CCc2cn(Cc3cc(C)ccc3C)c3ccccc23)cc1OC -27.5%, O=C(Cn1ccn(-c2cccc(Cl)c2)c(=O)c1=O)NCCc1ccccc1 4.54%, CC(C)c1ccc(NC(=O)C2CCN(S(=O)(=O)c3cccc4nsnc34)CC2)cc1 -12.2%, Cc1c(C(=O)Nc2nc(-c3ccc(F)cc3)ns2)oc2ccc(Br)cc12 -2.22%, CC(=O)NS(=O)(=O)c1ccc(N)cc1 -10.4%, COc1ccc(NC(=O)NC2COc3ccccc3C2)c(OC)c1 (configuration not stated) -0.917%, O=S(=O)(NCC(c1ccco1)S(=O)(=O)c1ccccc1)c1ccccc1 (configuration not stated) -15.6%, Cc1cn([C@H]2C=C[C@@H](CO)O2)c(=O)[nH]c1=O -9.84%, Cc1c(C(=O)Nc2ccc(F)c(F)c2)oc2ccc(S(=O)(=O)N3CCCCC3)cc12 -14%, COc1ccccc1CNC(=O)CCCCn1c(=O)c2ccccc2n(Cc2c(C)cc(C)cc2C)c1=O -22.6%, COc1ccc(CNC(=O)Cn2c(=O)oc3cc(S(=O)(=O)N4CCCCCC4)ccc32)cc1 -15.7%, COc1ccc(N2CCN(C(=O)CCc3c(C)nc4c(-c5ccccc5)c(C)nn4c3C)CC2)cc1 -21.4%, COc1ccc2c(c1)cc(CNc1ccc(OC)c(OC)c1)c(=O)n2CC(=O)Nc1ccc(F)cc1 -9.73%
